Experimental data from PubChem BioAssay AID1508624 (National Center for Advancing Translational Sciences (NCATS), 2021).
Among all 48,000 compounds or so, about 120 (0.25%) were called active. Inconclusive results (about 4%) are left out. Calls follow the shape of the dose curve; as a rule, active = well fitted activation curve with a large enough effect; inconclusive = small, poorly fitted or top-dose-only effect, or another doubt; inactive = no such curve, though single readings can be large or run the other way. This is one part of the list.

test: Primary qHTS for Identification of Small Molecule Activators of Huntingtin-Antisense Promoter Activity; conditions: HEK293 HTT-AS promoter firefly luciferase reporter, 24 h; series mostly up to 57.5 µM; activity change, positive = activation: at the top concentration; also: nearly all actives have a fitted effect of over 55% in size
How it was run: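 HEK293 Fluc reporter, 2,500 cells/well, 24 h pre-culture; cpds up to 57.5 uM final, 24 h 37 degrees C; Dual-Glo, 10 min RT; normalized vehicle = 0%, zero RLU = -100%.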

Activity change, positive = activation, inactive:
COc1ccc(-c2noc(Cn3c(=O)c4ccccc4n(CC(=O)Nc4cccc(C(F)(F)F)c4)c3=O)n2)cc1 -33.4%
Cc1ccc(C)c(NS(=O)(=O)c2ccc3c(c2)n(C)c(=O)n3C)c1 -8.04%
CN1CCN(C2=Nc3cc(Cl)ccc3Nc3ccccc32)CC1
O=C(Cc1ccc(F)cc1)NCCc1csc(-c2cccc(F)c2)n1 -17.5%
CC(C)NC(=O)N1CCC(N2CCN(Cc3ccc(F)cc3)C(=O)C2=O)CC1 0.0927%
CCOc1ccc(N(CC)S(=O)(=O)N2CCCC(C(=O)NCc3ccc(Cl)cc3)C2)cc1 (stereo not drawn) -30.7%
CO[C@@H](C(=O)N1Cc2[nH]nc(NC(=O)c3ccc(N4CCN(C)CC4)cc3)c2C1)c1ccccc1 -28.5%
CCc1nc2onc(C)c2c(=O)n1CC(=O)O 1.95%
O=C(c1cccc(Cl)c1)N(Cc1ccco1)Cc1ccccc1Cl -35.8%
Cc1ccccc1-c1nc(CS(=O)(=O)CC(=O)Nc2cccc(C(F)(F)F)c2)c(C)o1 -28.5%
COc1ccc2c(c1)c1c(c(=O)n(Cc3ccccc3)c(=O)n1CC(=O)Nc1c(C)cccc1C)n2C -7.08%
Cc1ccc(S(=O)(=O)NCCc2sc3nc(-c4ccccc4)nn3c2C)cc1C -0.566%
CCn1c(SCC(=O)N2CCC(C)CC2)nnc1-c1ccccc1O -4.69%
Cc1oc(-c2cccc(Br)c2)nc1Cn1c(=O)cc(-c2ccccc2)c2c(C)nn(C)c21 -9.81%
Cc1ccc(CNC(=O)c2oc3ccc(S(=O)(=O)N4CCC(C)CC4)cc3c2C)cc1 -26.5%
Cc1cccc(OCC(=O)Nc2ccc3nc(Nc4cccc(C(F)(F)F)c4)cc(C)c3c2)c1 -43.1%
COc1ccccc1CNC(=O)c1ccc2c(c1)N(Cc1cc(C)ccc1C)C(=O)c1ccccc1S2 -16.9%
CCCCNC(=O)c1cc2c(=O)n3cccc(C)c3nc2s1 27%
COc1ccc(NC(=O)C2=C(C)C(=O)OC23CCN(C(C)C)CC3)cc1Cl -18.9%
Cc1ccccc1NC(=O)CSc1nc2ccc(NC(=O)c3ccccc3)cc2s1 -5.69%
CC(=O)OCc1cnc(C)c2oc(=O)c(C(=O)Nc3ccc(C)cc3Cl)cc12 -12.7%
CCN(CCO)CCCOc1ccc2c(Nc3cc(CC(=O)Nc4cccc(F)c4)[nH]n3)ncnc2c1 -10.4%
CC1CCC(Nc2ncnc3onc(-c4ccc(Cl)cc4)c23)CC1 (stereo not drawn) -31%
COc1ccc(-c2coc3c2c(C)cc2oc(=O)c(C)c(C)c23)cc1 -3.36%
Cc1ccccc1CN1C(=O)C(O)(CC(=O)c2ccccc2)c2cc(Cl)ccc21 (stereo not drawn) -31.8%
Cc1oc(-c2ccc(C(=O)NCc3ccc(F)cc3)cc2)nc1CS(=O)c1ccccc1 (stereo not drawn) -24.7%
CCOc1ccc(/C=C/c2nc(C#N)c(NC3CCCCC3)o2)cc1 -2.69%
CC(=O)c1cc2c(cc1N/C(=N/S(=O)(=O)c1ccccc1)c1ccc(Cl)cc1)OCO2 -14.8%
Cc1cc(C)cc(C(=O)Nc2c(C(=O)Nc3ccccc3F)oc3ccccc23)c1 -9.88%
COc1ccccc1OCCn1c(C(C)Oc2ccccc2)nc2ccccc21 (stereo not drawn) -36.4%
CCN(CC)CCNC(=O)c1ccc(-c2nc(CS(=O)(=O)c3ccc(C)cc3)c(C)o2)cc1 -16.1% [at 11.5 µM, percent change from vehicle, -100% = no light]
CC(C)c1ccc(NC(c2nnc(-c3ccccc3)o2)c2ccc(F)cc2Cl)cc1 (stereo not drawn) -26.4%
COc1ccc(-c2cc(C(F)(F)F)n3nc(C(=O)O)c(Cl)c3n2)cc1OC -4.71%
CCOc1ccc(NC(=O)Cn2cc(C(=O)c3ccc(F)cc3)c(=O)c3cc4c(cc32)OCCO4)cc1 -8.87%
CC(=O)c1cc(-c2ccccc2)n(CCC(=O)Nc2ccc(C(C)C)cc2)c1C -33.7%
Cc1ccc(-n2ncc(C(=O)N3CCN(Cc4ccccc4)CC3)c2C2CCN(C(=O)OC(C)(C)C)CC2)cc1 -37.2%
COc1ccc(NC(=O)Cn2cnc3ccc(S(=O)(=O)N4CCC(C)CC4)cc3c2=O)cc1Cl -17.7%
CC(C)(C)OC(=O)N1CCC(c2c(C(=O)NCCN3CCCC3)cnn2-c2ccc(Cl)cc2)CC1 -13.2%
Cc1ccc(NC(=O)/C=C/c2ccc(Cl)cc2)c(Br)c1 -6.46%
COc1cc(C2CC(=O)c3c([nH]c(C(=O)OCc4ccc(C)cc4)c3C)C2)cc(OC)c1OC (stereo not drawn) -48%
Cc1cccc(C(c2sc3nc(-c4ccco4)nn3c2O)N2CCN(Cc3ccccc3)CC2)c1 (stereo not drawn) -10.3%
CCOC(=O)c1ccccc1NC(=O)Cn1c(=O)n(CCC(=O)N2CCc3ccccc3C2)c(=O)c2ccccc21 -27.1%
COc1ccccc1-c1nnc(C2CCN(C(=O)c3cccc(Cl)c3)CC2)o1 -8.7%
COc1cc(NC(=O)c2cc(Cl)ccc2Cl)ccc1NC(=O)c1cc2ccccc2o1 -21.6%
CN(C)c1ccc(CNC(=O)c2cnc3sc(N4CCCC4)nn3c2=O)cc1 -10.4%
COCCCNC(=O)c1[nH]c2ccccc2c1Sc1ccc(C)cc1 0.181%
Cc1ccccc1NC(=O)Cn1c(=O)n(CCCCCC(=O)NCc2ccccc2Cl)c(=O)c2sccc21 -27%
CCS(=O)(=O)N1CCc2cc(C(=O)NCc3ccc(Cl)cc3)ccc21 -26.3%
CCOc1ccc(OCc2ccc(C(=O)Nc3cc(OC)c(OC)c(OC)c3)o2)cc1 7.19%
CC(C)c1ccc(-c2noc(SCC(=O)N3CCN(c4ccc(F)cc4)CC3)n2)cc1 -51.4%
O=C(CCc1ccccc1)N(Cc1cccnc1)c1nc2c(F)cc(F)cc2s1 -41.4%
Cc1ccc(C)c(NC(=O)N(C)CCc2c(C)nn(C)c2C)c1 0.458%
COc1ccc(CCNS(=O)(=O)c2cc(-c3cc(C)no3)ccc2OC)cc1OC -2.6%
Cc1ccc(N2CC(C(=O)NCCS(=O)(=O)N3CCN(c4ccccc4)CC3)CC2=O)cc1C (stereo not drawn) 10.4%
Cc1ccc(C)c(Nc2nn3c(=O)c4ccc(C(=O)NCCC5=CCCCC5)cc4nc3s2)c1 -20.7%
CCNc1nc(N)nc(Oc2ccc(OCC(=O)OC)nn2)n1 -7.17%
CCN(CC)CCNc1ncnc2c1cnn2-c1cc(Cl)ccc1C -12%
CCOc1ccc(-c2nc(CNC(=O)NC3CCCCC3)c(C)o2)cc1 -8.29%
Cc1ccc(C(=O)Nc2nc3nc(C)cc(=O)n3[nH]2)cc1 -8.07%
COc1cccc(CNC(=O)CSc2nc(=O)[nH]c3c2CCC3)c1 -4.49%
CCCN(C(=O)C(=O)Nc1ccc2nc3n(c(=O)c2c1)CCCCC3)c1ccc(OCC)cc1 -18.9%
CCOc1ccccc1C(=O)Nc1cccc2ccc(C)nc12 -30.5%
CCc1nnc(NS(=O)(=O)c2ccc(N)cc2)s1 -3.3%
COc1ccc(CCNc2nc3ccc(Cl)cc3n3cnnc23)cc1OC -6.78%
Cc1cccc2nc(-c3ccc(N(C)C)cc3)c(Nc3ccc4c(c3)OCO4)n12 27.3%
O=C(NCCc1csc(-c2ccc(Cl)cc2)n1)c1ccco1 -22%
COc1cccc(-c2nnc3n(Cc4ccc(C)cc4)c(=O)c4ccccc4n23)c1O -15.2%
CCCCN(Cc1cccs1)S(=O)(=O)c1cc(-c2cc(C)no2)ccc1C -36.8%
CCN1CCN(c2csc3ccc(F)cc3c2=O)CC1 15.1%
Cc1cccn2c(=O)cc(CSc3nnc(NC(=O)COc4ccc(F)cc4)s3)nc12 -2.03%
COc1ccc(-c2nc3scc(CCNS(=O)(=O)c4c(C)noc4C)n3n2)cc1OC -13.6%
COc1cccc(CNC(=O)c2[nH]c3cc(C)ccc3c2Sc2ccccc2)c1 14.7%
CCOC(=O)c1c(S(=O)(=O)NCC(=O)N2CCN(c3cccc(Cl)c3)CC2)c(C)n(C)c1C -29.2%
O=C(Cc1ccccc1)N(Cc1cccnc1)c1nc2ccc(Cl)cc2s1 -13.2%
CCCOc1ccc(C(=O)Nc2ccc3oc(-c4ccc5ccccc5c4)nc3c2)cc1 14.3%
COc1ccc(NC(=O)c2ccc3c(SCC(=O)O)c4c(nc3c2)CCCC4)cc1OC -11.6%
CC(=O)c1cccc(NC(=O)CSc2nnc3ccc(-c4ccc(F)cc4)nn23)c1 10.5%
O=C(NCCc1ccccc1)c1cc(-c2ccc(Br)cc2)on1 -1.15% [at 11.5 µM, percent change from vehicle, -100% = no light]
CCOC(=O)c1c(C)oc2ncnc(N3CCN(c4ccc(C)cc4C)CC3)c12 1.11%
Cc1sc2ncn(CC(=O)Nc3ccc(F)cc3Cl)c(=O)c2c1S(=O)(=O)N1CCN(c2ncccn2)CC1 -10%
CCOC(=O)c1cccc(-n2nnc3c(sc4nc(C)c(Br)c(C)c43)c2=O)c1 0.793%
O=C(Nc1ccc(Br)cc1F)c1cc(S(=O)(=O)NC2CCCC2)ccc1F -21.7%
Cn1c(=O)c2c(nc(Oc3ccc(C#N)cc3)n2Cc2ccc(Cl)cc2Cl)n(C)c1=O -13.5%
CCOC(=O)c1ccccc1NC(=O)Cn1c(=O)n(CCC(=O)NCc2ccccc2OC)c(=O)c2ccccc21 -7.2%
O=C(Nc1ccc(F)cc1)N1CCN(c2ccc3nnc(-c4ccc(F)cc4)n3n2)CC1 -23.5%
Cc1ccc(-n2nnc(-c3nsc(NC(=O)c4ccccc4C)n3)c2C)cc1Cl 4.25%
CCOc1ccc(Nc2c(S(=O)(=O)c3ccc(Cl)cc3)cnc3ccc(OC)cc23)cc1 -28.4%
Cc1ccc(CNC(=O)C2CCN(C(=O)c3ccc(-n4ccc5ccccc54)s3)CC2)cc1 -10.7%
COc1ccc(-c2c3c(=O)n(C)c(=O)n(C)c3cn2-c2cccc(N)c2)cc1 -5.51%
CCOC(=O)CC(NC(=O)CCc1c(C)nc2c(-c3ccccc3)c(C)nn2c1C)c1ccc(C)cc1 (stereo not drawn) -45.5%
COc1ccc(Cn2ccc3nc(C)c(C(=O)Nc4ccc(F)cc4)cc3c2=O)cc1 -19.6%
COCCCNC(=O)c1[nH]c2cc(OC)ccc2c1Sc1ccc(C)cc1 3.98%
CCn1cc(C(=O)NCCc2ccc(Cl)cc2)c(=O)c2cc(S(=O)(=O)N3CCc4ccccc4C3)ccc21 -4.04%
